Assay results as given in paper PMC10320511.
These are yes or no findings as the source states them, for the method shown. Binding seen in cells or lysates may run through a third protein. Sequences can lack the tags named with a protein.

Columns and labels:
[1] = biological target: T1, FRQ Δ511–558, V5H6-tagged (Neurospora crassa) (UniProt P19970); assay: co-IP; V5H6-tagged FRQ (wild type or mutant) pulled down with V5 agarose from Neurospora lysate (cultures in the light, 25 °C); 50 mM Hepes pH 7.4, 137 mM NaCl, 10% glycerol, 0.4% NP-40; 4 °C, 2 h; Western blot with FRQ, FRH, WC-1 and WC-2 antibodies
T1 sequence: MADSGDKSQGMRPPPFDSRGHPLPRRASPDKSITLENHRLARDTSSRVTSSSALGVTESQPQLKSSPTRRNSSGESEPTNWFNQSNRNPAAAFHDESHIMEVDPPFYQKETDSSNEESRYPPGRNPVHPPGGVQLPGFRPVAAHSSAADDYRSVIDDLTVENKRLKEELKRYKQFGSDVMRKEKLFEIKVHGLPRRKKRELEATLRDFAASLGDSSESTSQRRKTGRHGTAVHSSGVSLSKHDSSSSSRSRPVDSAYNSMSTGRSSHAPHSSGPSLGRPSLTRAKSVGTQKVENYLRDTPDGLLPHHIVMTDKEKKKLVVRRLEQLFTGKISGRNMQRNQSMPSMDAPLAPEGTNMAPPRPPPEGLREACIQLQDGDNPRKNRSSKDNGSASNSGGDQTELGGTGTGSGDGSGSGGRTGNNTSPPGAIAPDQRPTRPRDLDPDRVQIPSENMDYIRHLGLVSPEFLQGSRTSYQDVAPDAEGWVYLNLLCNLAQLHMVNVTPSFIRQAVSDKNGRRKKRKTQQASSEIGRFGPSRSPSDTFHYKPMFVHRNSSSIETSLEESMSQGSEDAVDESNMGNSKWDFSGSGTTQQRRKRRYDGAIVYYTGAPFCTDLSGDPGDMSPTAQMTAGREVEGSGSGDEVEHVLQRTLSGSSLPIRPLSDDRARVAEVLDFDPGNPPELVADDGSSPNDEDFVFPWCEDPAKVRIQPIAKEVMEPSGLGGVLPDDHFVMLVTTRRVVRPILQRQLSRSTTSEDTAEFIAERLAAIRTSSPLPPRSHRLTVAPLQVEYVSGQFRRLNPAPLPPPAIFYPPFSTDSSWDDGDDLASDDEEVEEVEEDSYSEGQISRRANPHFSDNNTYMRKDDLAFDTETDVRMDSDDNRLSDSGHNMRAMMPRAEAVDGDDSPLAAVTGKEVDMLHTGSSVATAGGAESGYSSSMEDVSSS

[2] = biological target: T2, FRQ D660E, V5H6-tagged (Neurospora crassa) (UniProt P19970); assay: as above
T2 sequence: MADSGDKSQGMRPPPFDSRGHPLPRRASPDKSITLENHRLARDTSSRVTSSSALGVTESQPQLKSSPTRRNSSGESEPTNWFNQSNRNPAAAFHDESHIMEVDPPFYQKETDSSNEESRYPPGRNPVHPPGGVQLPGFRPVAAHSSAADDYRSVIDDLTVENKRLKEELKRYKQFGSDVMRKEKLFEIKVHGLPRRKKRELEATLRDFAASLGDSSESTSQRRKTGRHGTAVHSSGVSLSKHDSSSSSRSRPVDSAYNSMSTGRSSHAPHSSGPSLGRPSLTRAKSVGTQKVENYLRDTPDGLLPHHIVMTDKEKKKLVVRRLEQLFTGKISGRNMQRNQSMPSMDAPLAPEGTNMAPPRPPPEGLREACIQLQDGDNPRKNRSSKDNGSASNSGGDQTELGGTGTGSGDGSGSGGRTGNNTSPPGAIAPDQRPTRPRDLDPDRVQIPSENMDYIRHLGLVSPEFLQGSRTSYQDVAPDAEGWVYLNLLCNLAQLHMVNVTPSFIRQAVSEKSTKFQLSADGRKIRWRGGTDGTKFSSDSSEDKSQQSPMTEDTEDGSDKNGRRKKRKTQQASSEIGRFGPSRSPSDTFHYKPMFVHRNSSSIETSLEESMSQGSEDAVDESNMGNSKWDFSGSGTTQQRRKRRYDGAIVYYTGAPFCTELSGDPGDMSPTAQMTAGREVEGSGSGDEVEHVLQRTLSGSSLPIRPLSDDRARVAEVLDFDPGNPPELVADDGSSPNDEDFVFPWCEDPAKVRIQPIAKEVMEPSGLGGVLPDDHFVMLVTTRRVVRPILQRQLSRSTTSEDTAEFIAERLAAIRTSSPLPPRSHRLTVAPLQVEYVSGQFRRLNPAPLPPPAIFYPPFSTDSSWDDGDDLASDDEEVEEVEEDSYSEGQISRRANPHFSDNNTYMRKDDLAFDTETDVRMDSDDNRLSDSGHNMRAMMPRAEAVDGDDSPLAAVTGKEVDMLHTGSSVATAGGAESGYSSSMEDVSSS

B1: White Collar-2 (WC-2) (protein, UniProt P78714 1-530)
chain: MSHGQPPPGSSMYGFGAMGMGSGMGSGMGSGMGTGMGTGMGTGMSASQMTSDPQDMMSLLDTSVFPGFDGMSMSLDVGDSMSNPFTPVSVPPPLPAGNAGPSHVGVCGGHGAPDQLFSPDDLIATSMSSAGPMIATPTTTTSGPSGGPSSGGGSTLTEFTKRRNWPAKVVEELQDWEHILDANGRIKHVSPSVEPLTGYKPPEIIDLFLRDLIHPDDVGVFTAELNEAIATGSQLRLFYRFRKKDGNWTIFETVGHAHIAAAKFAPNPQNQSPFCQAVFMMARPYPTKNAGLLDSFLEHKIENERLKRRIAELRREEQEEQEESHRTWRMSQEGRSDVTPSDDTATQMGMTPFYIPMNAQADVMMPPPSQPASSLNIALTRENLEGIAGSRPDSIREKMLRYEGNHADTIEMLTGLKYQEGERSHGITTGNASPTLIKGDAGIAIPLDRDPRTGEKKKKIKVAEEYVCTDCGTLDSPEWRKGPSGPKTLCNACGLRWAKKEKKKNANNNNNGGGIGGHNDIHTPMGDHMG
binding [1]: no binding | binding [2]: no binding
